In PubChem BioAssay AID662 (National Center for Advancing Translational Sciences (NCATS), 2007):
Hit rate of the full screen: of about 71,000 compounds, about 1,800 (2.5%) were called active. The inconclusive results got no clear call from the source; some entries with a clear call stand among them for comparison. Calls come from the whole dose curve; as a rule, active = well fitted activation curve with a large enough effect in the signal ratio, with a control signal flat (not every such curve was filed as active); inconclusive = small, poorly fitted or top-dose-only effect, or effect the other way, or a change in a side signal; inactive = flat fitted curve, though single readings scatter; the % refers to the signal ratio. Potencies of inconclusive entries are doubtful fits and often do not repeat.

Assay: Cell signaling CRE-BLA (Fsk stim); for activity change, negative = inhibition: % of control where 0% means no effect
Details: CHO CRE-bla reporter (cAMP response element driving beta-lactamase), forskolin EC10, beta-lactamase ratio; activity change, negative = inhibition: at 38.2 µM (top of the series) unless noted
Source text: NIH Molecular Libraries Screening Centers Network [MLSCN]
NIH Chemical Genomics Center [NCGC]
Assay Provider: Marshall W. Nirenberg, U.S. National heart lung & blood institute
Memories persist for different lengths of time, from seconds or minutes to a lifetime. There are two kinds of memory: short-term memory (STM) and long-term memory (LTM). STM lasts for minutes to hours, which maybe mediated by modifications of molecules involved in synaptic functions. LTM lasts for days or longer, and may be due to the formation of new synapses or restructuring of existing synapses. LTM, but not STM, requires gene transcription and synthesis of proteins. CREB (cyclic-AMP Responsive Element Binding Protein) is one of the candidates plays an important role for enhancement of some types of LTM. CREB, a family of transcription factors, regulates the transcription of genes containing cAMP Responsive Elements (CRE). CRE is a nucleotide sequence often found in the promoter regions of genes that are binding sites for CREB.
Using a beta-lactamase reporter-gene under control of cAMP responsive element, a cell-based assay [CellSensor(TM) CRE-bla CHO developed by Invitrogen Corp.] was used to measure forskolin-induced signaling. Library compounds were measured for their ability to modulate positively or negatively the action of EC10 NKH 477, a water soluble forskolin, on reporter gene activity. Compounds were screened in a titration series in 1536-well format. Positive and negative modulators were identified based on the AC50 values derived from the screening data.
NCGC Assay Protocol Summary
2000 cells/5uL in Opti-MEM medium containing 0.5% dialyzed FBS, 0.1 mM NEAA, 1 mM sodium pyruvate and 10 mM HEPES was dispensed into 1536-well plates and cells were cultured at 37 degrees Celsius overnight. […] And then the plates were incubated at 37 degrees Celsius for 3 hours. 1 uL of CCF4-dye mixture was added to each well. After incubated at room temperature for 2 hours the plates were measured on an EnVision plate reader at Excitation 405nm, Emission1=460nm and Emission 2=530nm. The %Activity was determined from the ratio of 460nm/530nm.
Keywords: NIH Roadmap, MLSCN, MLSMR, qHTS, NCGC, CRE, beta-lactamase reporter-gene assay.
Potency is the fitted concentration of half-maximal effect; tags give direction and shape of the fitted curve.

Structure (SMILES) | activity change, negative = inhibition | Potency
CCCn1c(=NC(=O)c2ccncc2)c(C(=O)OCC)cc2c(=O)n3cccc(C)c3nc21 | inactive: 11.4% | 
COc1ncc2nc(C)c(=O)n(CCc3ccccc3)c2n1 |  | inconclusive: 15.8 µM [rising, partial curve]
O=C(O)CCCC(=O)N1CCN(c2nc(-c3ccccc3)c3ccccc3n2)CC1 |  | inconclusive: 10 µM [rising, single point]
CC1CCCN(C(=O)C2CCN(CCCc3ccccc3)CC2)C1 (configuration not stated) | inconclusive: -1.4% | 
COC(=O)c1ccc(NC(=O)N2CCOCC2)cc1 | inactive: -0.509% | 
CC(C)OC(=O)c1cc2c(OC[C@@H](O)CNC(C)(C)C)cccc2[nH]1 | inactive: -15.6% | 
CCCOc1ccc2c3c(c(=O)oc2c1)CCCC3 | inactive: 23% | 
Cc1nn(-c2ccccc2)c2sc(C(=O)OCC(=O)N3CCCCC3)cc12 | inactive: -6.22% | 
CC(=NCc1cccnc1)C1=C(O)c2ccccc2C1=O |  | inconclusive: 10 µM [rising, partial curve]
Cc1nn(Cc2ccccc2)c(Cl)c1C(=O)OCc1nnc(-c2ccccc2)o1 | inactive: -12.8% | 
COc1ccc(CCNC(=O)CC2Oc3ccc(Cl)cc3NC2=O)cc1OC (configuration not stated) | inconclusive: 29.9% | 
COc1ccc(C2SCCN2S(=O)(=O)c2ccccc2)cc1OC (configuration not stated) | inconclusive: 20.6% | 
Cc1nc2ccccc2c2c1C(=O)N(C)C2=O |  | inconclusive: 25.1 µM [rising, single point]
O=C(Nc1cccc2cccnc12)c1cccnc1 | inconclusive: -4.38% | 
O=c1[nH]c(SCc2cccc(Cl)c2)nc2c1CCCC2 | inconclusive: 18.3% | 
CC(C)n1c(=NC(=O)c2ccco2)c(C#N)cc2c(=O)n3ccccc3cc21 |  | inconclusive: 10 µM [rising, partial curve]
O=C1NC(=O)C(c2ccccc2)(c2ccccc2)N1 | inactive | 
N#Cc1nc(-c2ccco2)oc1NCc1ccco1 | inactive: 29.2% | 
CC(=O)N1CCc2cc(S(=O)(=O)NC(CC(C)C)C(=O)N3CCc4ccccc4C3)ccc21 (configuration not stated) | inconclusive: 14.5% | 
CCOc1ncccc1C(=O)OCC(=O)c1c(N)n(C)c(=O)n(C)c1=O | inconclusive: 17.7% | 
CCOc1ccc(OCC(=O)c2c(O)c3ccccc3oc2=O)cc1 | inactive: 12% | 

Structure (SMILES) | activity change, negative = inhibition | Potency
CCOC(=O)Cn1c(-c2nonc2NC(=O)c2ccccc2F)nc2ccccc21 | inactive: 29% | 
O=S(=O)(c1ccc(OCC(O)CNCc2ccco2)c(Cl)c1)N1CCOCC1 (configuration not stated) | inconclusive: -9.85% | 
CN1CCN(c2ncc3nc(CCc4ccccc4)c(=O)n(C4CC4)c3n2)CC1 |  | inconclusive: 10 µM [rising, partial curve]
CSc1cccc(NC(=O)CN(C2CCCCC2)S(C)(=O)=O)c1 | inconclusive: 0.275% | 
N#CCCn1c(=O)c(-c2ccc(F)cc2)nc2cnc(Oc3ccccc3)nc21 |  | inconclusive: 25.1 µM [rising, single point]
COc1cc(OC)cc(C(=O)NCC(=O)N2CCCCC2)c1 | inactive: -3.36% | 
CS(=O)(=O)c1ccc2nc(NC(=O)C3C4C=CC(C4)C3C(=O)O)sc2c1 (configuration not stated) | inconclusive: -5.7% | 
Nc1c(NCCN2CCOCC2)c2ccccc2oc1=O | inactive: 16.9% | 
O=C(OCC(=O)N1CCN(C(=O)c2ccco2)CC1)c1cc(-c2ccccc2)nc2ccccc12 |  | inconclusive: 10 µM [rising, partial curve]
Cc1c2c(nc3c(C)cccc13)OC(C)C2 (configuration not stated) | inactive: 9.5% | 
CC(C)(C)C(=O)NC(c1ccc(Cl)cc1)[C@]1(C)C[C@H]1C1CCCCC1 (some centres not stated) | inconclusive: 13.1% | 
COC(=O)c1c(NC(=O)c2c(C)noc2C)sc2c1CCCCCC2 | inactive: -0.498% | 
NN(CC(=O)O)CC(=O)O | inactive: -4.37% [at 7.6 µM] | 
O=c1cc(CNC2CCCCC2)c2ccccc2[nH]1 | inconclusive: -12.9% | 
CC(C)=CCc1c(O)cc(O)c2c1O[C@H](c1ccccc1)CC2=O |  | inconclusive: 31.6 µM [rising, single point]
CN1CCN(c2ncc3nc(-c4ccc(F)cc4)c(=O)n(C4CC4)c3n2)CC1 |  | inconclusive: 12.6 µM [rising, partial curve]
COc1ccccc1N1CCN(C(=O)c2cc(-c3ccc(C)cc3)on2)CC1 | inconclusive: -24.3% | 
CN(C(=O)c1cc2n(n1)C(C(F)(F)F)CC(c1ccco1)N2)c1ccc(OC(F)(F)F)cc1 (configuration not stated) | inconclusive: -20.7% | 
CN(C)c1ccc(/C(=N\O)C(F)(F)F)cc1 |  | inconclusive: 0.02 µM [rising, full curve, poor fit]
Cc1cc(C)c(C#N)c(SCC(=O)Nc2nnc(-c3ccccc3)s2)n1 | inconclusive: 11.5% | 
CCOC(=O)c1nc(S(C)(=O)=O)ncc1Cl | inconclusive: -7.41% [cytotoxic] | 
